From PMC12136788
The list shows a part of the results.

T1: UNK ZnF1-6 (called full-length) (human, UniProt Q9C0B0 30-357)
T1 sequence: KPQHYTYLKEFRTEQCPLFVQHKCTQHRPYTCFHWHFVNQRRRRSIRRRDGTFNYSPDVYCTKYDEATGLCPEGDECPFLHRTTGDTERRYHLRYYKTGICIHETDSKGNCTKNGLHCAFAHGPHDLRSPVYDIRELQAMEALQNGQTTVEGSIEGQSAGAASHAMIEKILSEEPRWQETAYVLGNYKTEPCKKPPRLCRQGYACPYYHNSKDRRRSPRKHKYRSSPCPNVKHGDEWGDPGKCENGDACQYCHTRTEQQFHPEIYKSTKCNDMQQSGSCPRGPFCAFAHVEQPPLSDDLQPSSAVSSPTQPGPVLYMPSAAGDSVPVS

B1: chr12:120444061:120444162:-|3pUTR|ENSG00000170855|unk|FALSE|unique (ssRNA)
RNA: GGGAGUUCUACAGUCCGACGAUCAAUUGUCAACCUGCAUAUCCUAAAAAUGUCAAAAUGCUGCAUCUGGUUAAAUGUCGGGGUAGGGGGGAAGCUGAAGGUGCUCGCUUCAUUUGCCUUGUUUACUCAUCCUGCCCUGUAAUGCAACAGAGGAUUGAGCAUCA
B2: chr1:225789428:225789553:+|3pUTR|ENSG00000143742|unk|total|mutant (ssRNA)
RNA: GGGAGUUCUACAGUCCGACGAUCUCCGAGAAAGUGUUGGGACAGAAAGUACUUUAUGUAACUAAGUGGGCUGUUCAGAAGCUCCGAGGUCAUUUUUUGUAAUUUUCUUUUUAAUUACUUCCGAGAGCCCGGGAUGCAAAUGUUCAACAGAGGAUUGAGCAUCA
B3: chr22:35295155:35295256:+|3pUTR|ENSG00000100281|unk|total|mutant (ssRNA)
RNA: GGGAGUUCUACAGUCCGACGAUCUUUCUUCUCCUGGCCCUGACAGAGCACUACAGCAUCAAAGUAAAUCUUUGGGGACAGUGCCGCCCAUCUGCAUCCUAUUUAAUUUCUUCCCUUCUCCCCACCAGUGUUGUCACAGGGCUACAACAGAGGAUUGAGCAUCA
B4: chr3:46835109:46836203:-|three_prime_utr|ENSG00000160808|control|control|control (ssRNA)
RNA: GGGAGUUCUACAGUCCGACGAUCUGAAGGCACAAGCUGUUCCAGUAUAAUAAAGAAAAUAAUUAAAUUAAGAAAAGUUAUACUAGAAAUAAGAUAUAGGUAUGAUUAUUAUUAAUCAUUAGUUUGUAGUAUUACUUUGUUCUACAACAGAGGAUUGAGCAUCA
B5: ENSG00000175387:stop:overlap|stop_codon|ENSG00000175387|stop_codon|NA|stop_codon (ssRNA)
RNA: GGGAGUUCUACAGUCCGACGAUCUGUUUCAUUGCAUUCUUGCAUAUUCUGGAGUUCAUUUGUAUCUAUUUUCAAUGAGGUUAUAGAGUCAGCUGAUCUUUAUGUAAAAUAAAGUUGGAGGCCUCCAAAUUCAAAACUGUUGCACAACAGAGGAUUGAGCAUCA
B6: chr2:88557131:88557241:-|3pUTR|ENSG00000172071|msi1|FALSE|unique (ssRNA)
RNA: GGGAGUUCUACAGUCCGACGAUCGAGGACAAGUAGCACAAACUGUAUAACGGUUUAUGUCCGUAGUUUUAUAGUCCUAUUUGUAGCAUUCAAUAGCUUUAUUCCUUAGAUGGUUCUAGGGUGGGUUUACAGCUUUUUGUACUUCAACAGAGGAUUGAGCAUCA
B7: ENSG00000107863:be:win_3801|CDS|ENSG00000107863|bound_else_gene|NA|bound_elsewhere_windowed (ssRNA)
RNA: GGGAGUUCUACAGUCCGACGAUCUGAACAUCAUUAUGAAACACUUAAGUUCCUUUCAGCUCAUCUGAAGACAGUGGCAGAAAAUUCAGAAAAAAAUAAGAUGGAACCAAGAAACCUAGCAAUAGUGUUUGGUCCCACCCUUGUCAACAGAGGAUUGAGCAUCA
B8: chr7:2664602:2664704:+|3pUTR|ENSG00000136295|msi1_unk|FALSE|overlapping (ssRNA)
RNA: GGGAGUUCUACAGUCCGACGAUCUCCUCCAGCCUCUGUAGGGCCAUGGCUGUAUGUACUGUCGCUGUGUUUUUUUGUUUUUUUAGAACUGGGUUUGGGGGCUGAUUUUUAUUUCUUUGGGGGCUUUUUUUCUUGGCAAAUACUCAACAGAGGAUUGAGCAUCA
B9: chr15:76949589:76949706:+|3pUTR|ENSG00000117906|msi1_unk|total|mutant (ssRNA)
RNA: GGGAGUUCUACAGUCCGACGAUCAUAAAUUUUUGUUUUUGUUCUAAGCCGAUUUAAUUUGGGAACUGACAGGACAAUGUUUUCCGGUUCCGCAUUUUGUUUAAAAACCUUUAAAGAAACCUUCCGAAGGACUCCGACCUCACACAACAGAGGAUUGAGCAUCA
B10: chr6:151351738:151351839:+|CDS|ENSG00000131016|msi1|total|mutant (ssRNA)
RNA: GGGAGUUCUACAGUCCGACGAUCGGUGGUGGGGCAGACCACCCCAGAAAGCUUUGAAAAAGCUCCUCAAGUCACAGAGAGCACCGAGUCCAGUGAGCUUGUAACCACUUGUCAAGCCGAAACCUCCGCUGGGGUAAAAUCACACAACAGAGGAUUGAGCAUCA
B11: chr11:73394502:73394603:+|CDS|ENSG00000054967|msi1|total|mutant (ssRNA)
RNA: GGGAGUUCUACAGUCCGACGAUCCACCAUCUCCACACCGUGCAGGGCCUGGCCUCGCUCUCUGGCCCCUGCUGCUCCCGCUGCCGCCAGAAGAAGUGGCCCGAGGUGCUGCUGUCCCCUGAGGCUGCCGCCGCCACUACUCCUCAACAGAGGAUUGAGCAUCA
B12: chr3:152464585:152464701:+|3pUTR|ENSG00000152601|msi1|total|mutant (ssRNA)
RNA: GGGAGUUCUACAGUCCGACGAUCAUAUUUUUGAAAUCCCUGAGUAUCAGGCCUUGUUAUAAAUAAGCUGCAUAAUCAAUAAACCGAACAAGGGACUUUUUGUUGAUAAUCCAAAUACUCAAAGUUUACGUAAUGAAAAUUAUACAACAGAGGAUUGAGCAUCA
B13: chr19:14961309:14961997:-|three_prime_utr|ENSG00000105143|control|control|control (ssRNA)
RNA: GGGAGUUCUACAGUCCGACGAUCGAUUCACUUACCCACUCACCAACUCAUUCAUUCAUGUCUUUCUGGGAUGAUUUCAUCACUAGUUGACUUCCUUGUUCAUCUGUUCAUUCAUUCAUUCUUCUAUGCAUUGGUUAGUUCAUGCAACAGAGGAUUGAGCAUCA
B14: ENSG00000167767:stop:overlap|stop_codon|ENSG00000167767|stop_codon|NA|stop_codon (ssRNA)
RNA: GGGAGUUCUACAGUCCGACGAUCGCGCUGUGCAGUCCAGGUGCAAAACCGCCCCUUCCCUCCCCUACCCCUUAUGUUCCCUGUAGCUGCCUCCAGAUCAGGCCUCUCCAAGGCCCCCUCCCGAAAGAAGAAGGGCAGCAAAGGCAACAGAGGAUUGAGCAUCA

molecular target: T1, UNK ZnF1-6 (called full-length); experiment: nsRBNS (natural sequence RNA bind-n-seq); RBNS binding buffer (assumed for nsRBNS): 25 mM Tris pH 7.5, 150 mM KCl, 3 mM MgCl2, 0.01% Triton X-100, 500 ug/ml BSA, 20 U/ml SUPERase-In, 4 C; UNK is unkempt and MSI1 is Musashi-1; names of the RNAs are library labels; protein concentration not given here; high values mean tight binding

Binder | binding signal [enrichment R]
B1 | 0.622
B2 | 0.526
B3 | 1.07
B4 | 4.03
B5 | 0.564
B6 | 8.5
B7 | 0.246
B8 | 2.3
B9 | 0.382
B10 | 0.527
B11 | 0.888
B12 | 0.593
B13 | 0.569
B14 | 2.49
